Here are results for 25 variants from the supplement of paper PMC7125110.

± gives the standard error. Variants at the floor of the assay are shown more often than the library holds them. Where only a bound is given, the exact number is not on record here.

B1: glmS ribozyme (parent)
chain: AUAAAAGCGCCAGAACUACAGAAAUGUAGUUGACGAGGAGGAGGUUUAUCGAAUUUUCGGCGGAUGCCUCCAAA

Settings in all cases: with glucosamine-6-phosphate
Variants of B1 are the subject of data set [1]. The data set is described as follows: self-cleavage kobs at 40 uM GlcN6P; higher = faster cleavage; RNA array. The gist of the method: (§1)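 Tracking of barcoded ribozyme variants used a hybridised Cy3 probe at 37 °C, after in situ transcription by E. coli RNA polymerase on sequenced MiSeq chips. The flowed solution held 40 μM to 10 mM glucosamine-6-phosphate in HEPES/KCl/Mg(OAc)2 buffer, and imaging ran over ~14 h. kobs was taken from exponential decay fits of normalised per-tile medians, and kcat and KM from weighted Michaelis–Menten fits.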

Variants of B1 are the subject of data set [2]. Briefly: self-cleavage kobs at 160 uM GlcN6P; higher = faster cleavage; RNA array. The gist of the method:
as §1

Data set [3] covers variants of B1. Briefly: self-cleavage kobs at 10000 uM GlcN6P; higher = faster cleavage; RNA array. Summed up:
as §1

Data set [4] covers variants of B1. Briefly: self-cleavage kobs at 2500 uM GlcN6P; higher = faster cleavage; RNA array. The gist of the method:
as §1

Variants of B1 are the subject of data set [5]. The data set is described as follows: self-cleavage kobs at 640 uM GlcN6P; higher = faster cleavage; RNA array. The gist of the method:
as §1

On to U47G G60C, for which, in the data set with glucosamine-6-phosphate [1], the “self-cleavage kobs at 40 uM GlcN6P” value was below 1e-05 s⁻¹. Moreover, the “self-cleavage kobs at 160 uM GlcN6P” value with glucosamine-6-phosphate [2] is below 1e-05 s⁻¹. For the same variant, in the data set with glucosamine-6-phosphate [3], the “self-cleavage kobs at 10000 uM GlcN6P” value is below 1e-05 s⁻¹.

Take U47G G60A: the “self-cleavage kobs at 40 uM GlcN6P” value with glucosamine-6-phosphate [1] was below 1e-05 s⁻¹. Further, in the data set with glucosamine-6-phosphate [4], the “self-cleavage kobs at 2500 uM GlcN6P” value was below 1e-05 s⁻¹.

As to U47G U54A, in the data set with glucosamine-6-phosphate [1], the “self-cleavage kobs at 40 uM GlcN6P” value turned out to be 0.000306 ± 4.7e-05 s⁻¹. In the data set with glucosamine-6-phosphate [5], the “self-cleavage kobs at 640 uM GlcN6P” value came to 0.00157 ± 0.00052 s⁻¹.

Take U45G C50U A53U: in the data set with glucosamine-6-phosphate [1], the “self-cleavage kobs at 40 uM GlcN6P” value was below 1e-05 s⁻¹.

On to U46C A53U, for which the “self-cleavage kobs at 40 uM GlcN6P” value in the data set with glucosamine-6-phosphate [1] was determined as 3.88e-05 ± 1.2e-05 s⁻¹. Also, the “self-cleavage kobs at 640 uM GlcN6P” value with glucosamine-6-phosphate [5] was 0.000471 ± 9.9e-05 s⁻¹. Also, the “self-cleavage kobs at 160 uM GlcN6P” value with glucosamine-6-phosphate [2] was found to be 0.000145 ± 3.3e-05 s⁻¹. In addition, the “self-cleavage kobs at 2500 uM GlcN6P” value with glucosamine-6-phosphate [4] came to 0.0012 ± 0.00023 s⁻¹. In addition, the “self-cleavage kobs at 10000 uM GlcN6P” value in the data set with glucosamine-6-phosphate [3] amounted to 0.00133 ± 0.00028 s⁻¹.

Turning to U45A U56C, in the data set with glucosamine-6-phosphate [1], the “self-cleavage kobs at 40 uM GlcN6P” value came out at 7.22e-05 ± 1e-05 s⁻¹. The “self-cleavage kobs at 640 uM GlcN6P” value with glucosamine-6-phosphate [5] worked out at 0.0014 ± 0.00014 s⁻¹. Moreover, in the data set with glucosamine-6-phosphate [2], the “self-cleavage kobs at 160 uM GlcN6P” value was found to be 0.000234 ± 3.5e-05 s⁻¹. Further, in the data set with glucosamine-6-phosphate [4], the “self-cleavage kobs at 2500 uM GlcN6P” value came to 0.00259 ± 0.00069 s⁻¹. For the same variant, the “self-cleavage kobs at 10000 uM GlcN6P” value in the data set with glucosamine-6-phosphate [3] was found to be 0.00411 ± 0.00072 s⁻¹.

As to A48U U49G, the “self-cleavage kobs at 40 uM GlcN6P” value with glucosamine-6-phosphate [1] is below 1e-05 s⁻¹.

Consider A48U C50U C58A, for which the “self-cleavage kobs at 40 uM GlcN6P” value in the data set with glucosamine-6-phosphate [1] was below 1e-05 s⁻¹. Besides, the “self-cleavage kobs at 640 uM GlcN6P” value in the data set with glucosamine-6-phosphate [5] was below 1e-05 s⁻¹. Further, the “self-cleavage kobs at 160 uM GlcN6P” value with glucosamine-6-phosphate [2] is below 1e-05 s⁻¹.

For the variant U46A C50G A53U C70G, in the data set with glucosamine-6-phosphate [1], the “self-cleavage kobs at 40 uM GlcN6P” value was determined as 0.000147 ± 6.3e-05 s⁻¹. The “self-cleavage kobs at 10000 uM GlcN6P” value with glucosamine-6-phosphate [3] was determined as 0.000126 ± 3.8e-05 s⁻¹.

For the variant U45G A64U C68G C71U, in the data set with glucosamine-6-phosphate [1], the “self-cleavage kobs at 40 uM GlcN6P” value was below 1e-05 s⁻¹.

As for G44U G59U U65G, in the data set with glucosamine-6-phosphate [1], the “self-cleavage kobs at 40 uM GlcN6P” value was below 1e-05 s⁻¹.

Regarding A48G C68A, in the data set with glucosamine-6-phosphate [1], the “self-cleavage kobs at 40 uM GlcN6P” value is below 1e-05 s⁻¹.

In the case of A48G C68G, the “self-cleavage kobs at 40 uM GlcN6P” value with glucosamine-6-phosphate [1] came out at 4.65e-05 ± 1.2e-05 s⁻¹. Further, the “self-cleavage kobs at 640 uM GlcN6P” value with glucosamine-6-phosphate [5] is 7.32e-05 ± 1.6e-05 s⁻¹. For the same variant, in the data set with glucosamine-6-phosphate [4], the “self-cleavage kobs at 2500 uM GlcN6P” value was 5.41e-05 ± 1.2e-05 s⁻¹. Also, the “self-cleavage kobs at 10000 uM GlcN6P” value in the data set with glucosamine-6-phosphate [3] came to 5.84e-05 ± 8.1e-06 s⁻¹.

U45A A53G U55G: the “self-cleavage kobs at 40 uM GlcN6P” value with glucosamine-6-phosphate [1] stood at 0.00113 ± 0.00021 s⁻¹. Moreover, the “self-cleavage kobs at 10000 uM GlcN6P” value with glucosamine-6-phosphate [3] was 0.0551 ± 0.018 s⁻¹.

In the case of U46A G62A, the “self-cleavage kobs at 40 uM GlcN6P” value in the data set with glucosamine-6-phosphate [1] was below 1e-05 s⁻¹. In the data set with glucosamine-6-phosphate [4], the “self-cleavage kobs at 2500 uM GlcN6P” value was below 1e-05 s⁻¹.

Take U46A G62C: the “self-cleavage kobs at 40 uM GlcN6P” value with glucosamine-6-phosphate [1] was below 1e-05 s⁻¹. Further, the “self-cleavage kobs at 640 uM GlcN6P” value in the data set with glucosamine-6-phosphate [5] is below 1e-05 s⁻¹. For the same variant, the “self-cleavage kobs at 160 uM GlcN6P” value with glucosamine-6-phosphate [2] is below 1e-05 s⁻¹. Besides, the “self-cleavage kobs at 2500 uM GlcN6P” value with glucosamine-6-phosphate [4] is below 1e-05 s⁻¹. Also, the “self-cleavage kobs at 10000 uM GlcN6P” value with glucosamine-6-phosphate [3] is below 1e-05 s⁻¹.

For U46C C61G, the “self-cleavage kobs at 40 uM GlcN6P” value with glucosamine-6-phosphate [1] was below 1e-05 s⁻¹. In the data set with glucosamine-6-phosphate [5], the “self-cleavage kobs at 640 uM GlcN6P” value was below 1e-05 s⁻¹. In addition, in the data set with glucosamine-6-phosphate [2], the “self-cleavage kobs at 160 uM GlcN6P” value is below 1e-05 s⁻¹. In addition, in the data set with glucosamine-6-phosphate [4], the “self-cleavage kobs at 2500 uM GlcN6P” value is below 1e-05 s⁻¹.

Turning to A48G U54A C61U, in the data set with glucosamine-6-phosphate [1], the “self-cleavage kobs at 40 uM GlcN6P” value was below 1e-05 s⁻¹.

Consider U47A G66U, for which the “self-cleavage kobs at 40 uM GlcN6P” value with glucosamine-6-phosphate [1] was 0.00013 ± 2.5e-05 s⁻¹. For the same variant, the “self-cleavage kobs at 640 uM GlcN6P” value with glucosamine-6-phosphate [5] turned out to be 0.00141 ± 0.00028 s⁻¹. Moreover, the “self-cleavage kobs at 2500 uM GlcN6P” value with glucosamine-6-phosphate [4] was 0.00244 ± 0.00069 s⁻¹. The “self-cleavage kobs at 10000 uM GlcN6P” value in the data set with glucosamine-6-phosphate [3] amounted to 0.00506 ± 0.00076 s⁻¹.

As to A48G C61U G66C C70U, in the data set with glucosamine-6-phosphate [1], the “self-cleavage kobs at 40 uM GlcN6P” value was below 1e-05 s⁻¹.

Turning to G44A G62C, in the data set with glucosamine-6-phosphate [1], the “self-cleavage kobs at 40 uM GlcN6P” value is below 1e-05 s⁻¹. In addition, in the data set with glucosamine-6-phosphate [5], the “self-cleavage kobs at 640 uM GlcN6P” value is below 1e-05 s⁻¹. The “self-cleavage kobs at 160 uM GlcN6P” value in the data set with glucosamine-6-phosphate [2] was below 1e-05 s⁻¹. In addition, the “self-cleavage kobs at 2500 uM GlcN6P” value with glucosamine-6-phosphate [4] is below 1e-05 s⁻¹. The “self-cleavage kobs at 10000 uM GlcN6P” value in the data set with glucosamine-6-phosphate [3] is below 1e-05 s⁻¹.

G44A G62U: the “self-cleavage kobs at 40 uM GlcN6P” value with glucosamine-6-phosphate [1] is below 1e-05 s⁻¹. For the same variant, the “self-cleavage kobs at 640 uM GlcN6P” value with glucosamine-6-phosphate [5] is below 1e-05 s⁻¹. Further, the “self-cleavage kobs at 160 uM GlcN6P” value in the data set with glucosamine-6-phosphate [2] was below 1e-05 s⁻¹. In the data set with glucosamine-6-phosphate [4], the “self-cleavage kobs at 2500 uM GlcN6P” value was below 1e-05 s⁻¹. Further, the “self-cleavage kobs at 10000 uM GlcN6P” value with glucosamine-6-phosphate [3] is below 1e-05 s⁻¹.

With A48C A64G, the “self-cleavage kobs at 40 uM GlcN6P” value in the data set with glucosamine-6-phosphate [1] is below 1e-05 s⁻¹. In addition, the “self-cleavage kobs at 160 uM GlcN6P” value in the data set with glucosamine-6-phosphate [2] was below 1e-05 s⁻¹. Further, in the data set with glucosamine-6-phosphate [3], the “self-cleavage kobs at 10000 uM GlcN6P” value turned out to be 6.31e-05 ± 1.3e-05 s⁻¹.

On to U49A U55C, for which, in the data set with glucosamine-6-phosphate [1], the “self-cleavage kobs at 40 uM GlcN6P” value was below 1e-05 s⁻¹. Further, in the data set with glucosamine-6-phosphate [2], the “self-cleavage kobs at 160 uM GlcN6P” value was below 1e-05 s⁻¹.

U49A U55G: in the data set with glucosamine-6-phosphate [1], the “self-cleavage kobs at 40 uM GlcN6P” value is below 1e-05 s⁻¹.
